# Test results published in paper PMC5515408.
# The list shows a part of the results. At the low end of the ranking the order means little.
# Target: MAX:MAX (p21) (UniProt P61244-2)
# Test: protein-binding microarray (anti-MAX antibody)
# Conditions: PBM: 15 mM Tris-HCl pH 7.5, 100 mM KCl, 0.075% NP40, 7.5 mM beta-mercaptoethanol, 375 ng/ul BSA, 8 ng/ul poly(dA-dT):(dA-dT), 550 ng complex, 60 min, room …; high values mean tight binding; double strand, one strand shown; sequences stand for … in CCGGC…TTAATAGCTAAGATTACTATATCGACG
row,Sequence,binding signal (log2 normalized fluorescence)
1,TGACTAGGGGTA,-0.293
2,TGAGAGAGTGTA,-0.651
3,AGACATGTGGTG,3.1
4,TGATACAACGTA,-0.446
5,TGATCAAAGGTA,-0.504
6,TGACATGGGGTA,2.42
7,TGATTCCTTGTA,-0.982
8,TGATACCCTGTA,-0.391
9,TGACACATGGTT,3.37
10,GGCCACTTGGTA,0.572
11,TGAATTTCCGTA,-1.04
12,CGACACGTGGTA,3.12
13,TGACACGCGAGA,2.54
14,TAACACGTGATA,3.18
15,CAACACGTGGTA,3.22
16,TGATCGGGGGTA,1.41
17,TGACACGTACCA,1.34
18,TGAGCAGGGGTA,0.451
19,TGAGTGCCAGTA,-0.284
20,TGACGTGGGGTA,1.38
21,TAATACGTGGTG,1.56
22,TGAAAATAAGTA,-0.811
23,TGACGTCGAGTA,-0.44
24,TGAGAGACTGTA,-0.798
25,TGAGACTCAGTA,-0.598

row,Sequence,binding signal (log2 normalized fluorescence)
1,TGAGAATATGTA,-0.726
2,TGAAACTAGGTA,-0.807
3,TGAACTCGCGTA,0.166
4,TGAAAGTAGGTA,-0.908
5,TGATTCTCAGTA,-0.684
6,TGAGGTAGTGTA,-0.71
7,TGATAAGTAGTA,-1.11
8,TGAGTACCCGTA,-0.792
9,TGACCGGTTGTA,-0.559
10,TGATCATGAGTA,1.67
11,TGATTGAGGGTA,-0.965
12,TGATGAGCCGTA,-0.923
13,TGAGTACGCGTA,-0.441
14,TGAGCGTCAGTA,-0.442
15,TGAAGATATGTA,-0.698
16,TGGCCCGTGGTA,1.64
17,TGATGGTGGGTA,0.202
18,TGAGGCTAGGTA,-1.16
19,TGAAACGGGGTT,0.434
20,TGAGCAATTGTA,-0.926
21,TGACAGGTGGTA,2.69
22,TGAATTGCAGTA,-0.423
23,TGATAATTGGTA,-1.09
24,TGACATACAGTA,0.345
25,TGATAGAGGGTA,-0.944

row,Sequence,binding signal (log2 normalized fluorescence)
1,TGCAGCGTGGTA,2.94
2,TGAGTTAAAGTA,-1.16
3,TGACTCCGGGTA,-0.571
4,TGAGAAGGTGTA,-0.154
5,TGACAGTCCGTA,-0.424
6,TGATAGCGAGTA,-0.413
7,TTGAACGTGGTA,2.54
8,TGACACGTAGAG,0.996
9,TGATCCCTCGTA,-0.795
10,TGTCACTTGATA,0.114
11,TGAGAGATAGTA,-1.27
12,TGAATAAATGTA,-0.629
13,TGACGGCTAGTA,-0.611
14,TGACCATTTGTA,-0.111
15,TGACCGTTGGTA,-0.411
16,TGACAGAATGTA,0.397
17,TGAGCCGCCGTA,-1.1
18,GTCCACGTGGTA,3.64
19,TGACCGCGTGTA,3.4
20,CGACCCGGGGTA,-0.203
21,TGAAGTGGGGTA,0.195
22,TGAGGGTAAGTA,-0.683
23,TGAACCCAAGTA,-0.182
24,TGAAGAGTCGTA,-1
25,TGAGAGCAGGTA,-0.436

row,Sequence,binding signal (log2 normalized fluorescence)
1,TGATGACCTGTA,0.612
2,TGAGTAACGGTA,-0.914
3,TGATTACAGGTA,-0.614
4,TGAGTCTCCGTA,-1.17
5,TGAAGATCTGTA,-0.94
6,TGAGGATCTGTA,-1.03
7,TGAGACGTAGTA,-0.907
8,TGAGTTGTGGTA,-0.427
9,TGATAGTGGGTA,-0.372
10,TGATACGAGGTA,-0.483
11,TGATCGGTCGTA,-1.05
12,CGGCACGTGGTA,3.27
13,TGCCAAGTGGTG,0.331
14,TGAAATGTGATA,1.72
15,TGACGCGTCGTA,0.345
16,TGAGCTTGCGTA,-0.291
17,TGATACCCAGTA,-0.866
18,TGAAGTGAAGTA,-0.601
19,TGATTGGGGGTA,1.36
20,TGACACGCGGTG,2.96
21,TGAATGCAGGTA,0.426
22,TGAGGTCATGTA,-0.0101
23,TGAATAACTGTA,-0.688
24,AGACAAGTGCTA,1.21
25,TGAACTGGGGTA,-0.27

row,Sequence,binding signal (log2 normalized fluorescence)
1,TAAAACGTGTTA,3.23
2,TGAACAGAGGTA,-0.661
3,TGAGATCAGGTA,-0.456
4,TGAAAGACTGTA,-0.564
5,TGATGTATTGTA,-0.0683
6,TGAGTCCGTGTA,-0.36
7,TGAGGCGCTGTA,-0.414
8,TCACCCGTGATA,2.13
9,TGAGCTGTCGTA,-0.577
10,TGACATATCGTA,-0.0327
11,TGATCTATTGTA,-1.22
12,TGACACGCGATA,2.93
13,AGACACGTGGTC,3.43
14,TGAGCACAAGTA,0.993
15,TGGCCCGTGGGA,1.32
16,TGCCACGACGTA,1.79
17,AGCGGGTCGCAC,1.5
18,TGAGGCTCGGTA,-0.792
19,TGTGACGTGGTA,1.45
20,TGAGACCCCGTA,-0.406
21,TGACATGGAGTA,0.821
22,AGACACGTGATC,3.05
23,TGACGACGGGTA,-0.453
24,TGACGTAATGTA,-0.411
25,TGACGAAGAATC,-0.78

row,Sequence,binding signal (log2 normalized fluorescence)
1,TGAGTTACTGTA,-1.15
2,TGATTTAACGTA,-0.722
3,TGACAGCTAGTA,-0.629
4,TGAAAGGACGTA,-0.333
5,TGAGATGTTGTA,-0.642
6,TGAAGTCACGTA,0.658
7,TGACGCTCTGTA,-0.348
8,AGGTTTCACCGG,0.535
9,TGAAACGCTGTA,0.387
10,TGAACGCATGTA,2.88
11,TGAGTGTTCGTA,0.177
12,TGAAATGAGGTA,0.744
13,TGAACTAGAGTA,-0.827
14,TGTCACCGGGTA,0.511
15,TGAGAGCATGTA,2.11
16,TGACACTTAGTA,-0.364
17,TGATGTACGGTA,-0.0815
18,TGACACGTGATA,3.05
19,TGACACAAAGTA,-0.0109
20,TGACTCGAGGTA,0.974
21,TGCCACTTGGTT,0.371
22,TGAGCGGGCGTA,-0.433
23,TGAATCCTCGTA,-0.584
24,TGATCACGGGTA,1.61
25,TGAGTCGTAGTA,-1.28

row,Sequence,binding signal (log2 normalized fluorescence)
1,AGCCACGTTGTA,3.25
2,TGACACGGAGTA,0.609
3,TGAGCGGCGGTA,-0.806
4,TGAGTAGGTGTA,-0.861
5,TGAGGATATGTA,-0.92
6,TGAGACGCCGTA,-0.749
7,TGACACGCTGTT,3.08
8,TTACACGTGGTG,3.07
9,TGAAGTTCGGTA,-0.962
10,TGATGCATAGTA,-0.0981
11,TGACACGTCATA,1.39
12,TGAAAGTATGTA,0.0414
13,TGATTTGTAGTA,-1.16
14,TGAGTTGCTGTA,-0.63
15,TGAGAAACGGTA,-0.778
16,TGACACCTGATC,2.25
17,TGATTACGGGTA,-0.738
18,TGAACCCATGTA,1.48
19,TGCTACGTAGTA,-0.764
20,TGATGTCCAGTA,-0.249
21,TGACACATGGTA,3.15
22,TGATCCAGGGTA,-0.85
23,TGAGACTCTGTA,-0.979
24,TGAAAGATGGTA,-0.31
25,TGACATGGCGTA,1.13
